The chains are these.
T1: RBFOX1 RRM RbFoxmut (Fox-RRM*) (Homo sapiens, UniProt Q9NWB1 109-208, R118D;E147R;N151S;E152T)
T1 sequence: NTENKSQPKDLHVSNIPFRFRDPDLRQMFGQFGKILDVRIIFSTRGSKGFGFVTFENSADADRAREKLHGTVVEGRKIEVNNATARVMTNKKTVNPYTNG

B1: UUAAGCU (DNA:RNA)
RNA: GGGAGACCGGAAUUCAGAUUGUCCUUAAGCUUUAAAUCCCGUCGUAGCCACCA
DNA 1: CAATCTGAATTCCGGTCTCCC
DNA 2: TGGTGGCTACGACGGGATT
B2: CUCGUUG (DNA:RNA)
RNA: B1 RNA with U25C, A27C, A28G, G29U, C30U, U31G
DNA 1: CAATCTGAATTCCGGTCTCCC
DNA 2: TGGTGGCTACGACGGGATT
B3: GGCGAAU (DNA:RNA)
RNA: B1 RNA with U25G, U26G, A27C, A28G, G29A, C30A
DNA 1: CAATCTGAATTCCGGTCTCCC
DNA 2: TGGTGGCTACGACGGGATT
B4: CUGUGAG (DNA:RNA)
RNA: B1 RNA with U25C, A27G, A28U, C30A, U31G
DNA 1: CAATCTGAATTCCGGTCTCCC
DNA 2: TGGTGGCTACGACGGGATT
B5: UUGCUUC (DNA:RNA)
RNA: B1 RNA with A27G, A28C, G29U, C30U, U31C
DNA 1: CAATCTGAATTCCGGTCTCCC
DNA 2: TGGTGGCTACGACGGGATT
B6: UAUCCGA (DNA:RNA)
RNA: B1 RNA with U26A, A27U, A28C, G29C, C30G, U31A
DNA 1: CAATCTGAATTCCGGTCTCCC
DNA 2: TGGTGGCTACGACGGGATT
B7: AGCUGGG (DNA:RNA)
RNA: B1 RNA with U25A, U26G, A27C, A28U, C30G, U31G
DNA 1: CAATCTGAATTCCGGTCTCCC
DNA 2: TGGTGGCTACGACGGGATT
B8: CUGUGCA (DNA:RNA)
RNA: B1 RNA with U25C, A27G, A28U, U31A
DNA 1: CAATCTGAATTCCGGTCTCCC
DNA 2: TGGTGGCTACGACGGGATT
B9: UGCCCUA (DNA:RNA)
RNA: B1 RNA with U26G, A27C, A28C, G29C, C30U, U31A
DNA 1: CAATCTGAATTCCGGTCTCCC
DNA 2: TGGTGGCTACGACGGGATT

Changes are numbered by the printed parent chain; changes in the protein carry UniProt numbers. Some of the results follow.

The assay addresses T1, RBFOX1 RRM RbFoxmut (Fox-RRM*). The assay can be described thus: EMSA; HiTS-Eq, 1 nM pool, 10 min; buffer printed only for the single-RNA assays: 10 mM Tris pH 7.5, 150 mM NaCl, 3.4 mM EDTA, 0.001% NP-40, 30 C. As to conditions: tags: His6 N-terminal (pET28a); label: 5' 32P. An outline of the steps: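 Purified RbFox RRM, wild type or mutant, was incubated for 10 min in 50 µL with 1 nM of a 5′-radiolabelled RNA pool carrying 7 randomized nucleotides, whose flanks were annealed to DNA oligonucleotides, over a series of increasing protein concentrations. Unbound RNA was resolved on 8% native PAGE, cut out, reverse-transcribed, barcoded by PCR and sequenced on an Illumina HiSeq 2500. Relative association constants were derived from changes in read counts for each RNA species versus the control reaction and normalised to the cognate motif.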
Background: In EMSA bound probe runs differently from free probe, usually more slowly.
With B1, the binding signal was 0.0881 KA relative to UGCAUGU. B2: the binding signal was 0.151 KA relative to UGCAUGU. On to B3, for which the binding signal was 0.107 KA relative to UGCAUGU.

In the case of B4, the binding signal is 0.121 KA relative to UGCAUGU. The value for B5 was 0.157 KA relative to UGCAUGU; that for B6 was 0.0934 KA relative to UGCAUGU.

Consider B7, for which the binding signal was 0.0929 KA relative to UGCAUGU. For the molecule B8, the binding signal was 0.226 KA relative to UGCAUGU. Turning to B9, the binding signal is 0.103 KA relative to UGCAUGU.
